The other results are listed elsewhere or left out.

The target of the assay is T1, OsWOX13 (Oryza sativa, UniProt Q5QMM3 1-267).
T1 sequence: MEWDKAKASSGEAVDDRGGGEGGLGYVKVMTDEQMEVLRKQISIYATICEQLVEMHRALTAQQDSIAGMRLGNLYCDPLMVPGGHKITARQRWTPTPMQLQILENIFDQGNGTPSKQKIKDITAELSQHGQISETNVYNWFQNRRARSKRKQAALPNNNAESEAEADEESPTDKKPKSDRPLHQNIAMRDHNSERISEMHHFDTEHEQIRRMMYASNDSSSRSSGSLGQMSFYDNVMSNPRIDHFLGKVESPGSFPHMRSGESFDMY
Briefly: protein-binding microarray (RPBM); PBS, 2% BSA, 51.3 ng/ul salmon testes DNA, 50 uM zinc acetate, 200 nM TF, 25 C, 1 h; high values mean tight binding. As to conditions: protein: recombinant; tags: N-terminal polyhistidine and DsRed monomer fusion (pET32a); label: CyDye5-dUTP incorporated in the synthesized complementary strand; 3' TTTTT single-stranded linker to array surface; dsDNA, one strand shown. In short, it runs like this: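 The binding signal is fluorescence intensity per array feature (arbitrary units). Readings came from an Axon 4000B scanner after a washed, 2% BSA-blocked, double-stranded custom Agilent array had been incubated for 1 h at 25 °C with 200 nM protein and 50 µM zinc acetate. The protein was a Ni–NTA-purified transcription factor fused N-terminally to polyhistidine and DsRed, expressed in E. coli BL21-CodonPlus.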
As for “GATCTAGTGATTGAGAAGCTGGGTGTGCGTTCGATGATTGCGGAGTCACCTAGTGCAG”, the binding signal was 24100 fluorescence intensity (a.u.).
With “TCACTAAATTTGAATTTGTTTTGATAAATTAAAACAAATGCGGAGTCACCTAGTGCAG” the figure was 25600 fluorescence intensity (a.u.).
“TTTCACGTTTAGATGATTGGGGAAGCAGATGGGTGAAATCCGGAGTCACCTAGTGCAG”: the binding signal was 7920 fluorescence intensity (a.u.).
With “GTTAATTAATTTACTAGTGTATTCCAACCACAAAGCCGACCGGAGTCACCTAGTGCAG” the figure was 51700 fluorescence intensity (a.u.); with “AGCACTGCAATTAAACAATCTCACTAAATGCAAATCCTACCGGAGTCACCTAGTGCAG”, 3300 fluorescence intensity (a.u.); with “ATGTTGCCAATCAATTCCAGCCAGGCGCACTAGCAATCTTCGGAGTCACCTAGTGCAG”, 16300 fluorescence intensity (a.u.).
In the case of “TCTTAATAATTATTTCTTAATTAATTCTGTGCTAATTGTGCGGAGTCACCTAGTGCAG”, the binding signal was 54300 fluorescence intensity (a.u.).
On to “CAATAATTATAATTACGATGGTTCGAATCAAAATTTCAAGCGGAGTCACCTAGTGCAG”, for which the binding signal was 35000 fluorescence intensity (a.u.).
Regarding “AAAGATTAGATAGGATTCAATCCTTTATTTCAAAGGGCTTCGGAGTCACCTAGTGCAG”, the binding signal is 27000 fluorescence intensity (a.u.).
For the sequence “CTGATTATGTATAGTAATTTGAAACACGGAGATTTCAAGTCGGAGTCACCTAGTGCAG”, the binding signal was 24400 fluorescence intensity (a.u.).
The value for “TGCCAAATTGCCAATCCAACGGCTGCAAGAGCATAAATCCCGGAGTCACCTAGTGCAG” was 22400 fluorescence intensity (a.u.); that for “GAGACCGTAAATTGGCTGCTCGTCGAATTTGCAATCTTGGCGGAGTCACCTAGTGCAG” was 13800 fluorescence intensity (a.u.).
For “TATTGATATTAATGAATCTAGATAGATATATATGTCTAGACGGAGTCACCTAGTGCAG”, the binding signal is 6810 fluorescence intensity (a.u.).
Turning to “CAAATTTAATTAACTGTTTAGTTTGATACTTGGCCTCATACGGAGTCACCTAGTGCAG”, the binding signal is 21100 fluorescence intensity (a.u.).
Take “CTTTTGTTTCAGTCAATCTTTTAGCAAATCTTGTATCTTCCGGAGTCACCTAGTGCAG”: the binding signal was 3560 fluorescence intensity (a.u.).
For “TTAGGCTGATTGCAGAAGATTCGGTGAGTTGTTTGACACTCGGAGTCACCTAGTGCAG”, the binding signal is 16200 fluorescence intensity (a.u.).
As for “TTTACTTAGTCAATCAATAGTGTCAAGTCATTTGAAACCGCGGAGTCACCTAGTGCAG”, the binding signal was 18100 fluorescence intensity (a.u.).
Take “AAATTTTAAACTAAAATTTGACTGCATCATGCTGGCTTTTCGGAGTCACCTAGTGCAG”: the binding signal was 6060 fluorescence intensity (a.u.).
Take “GCTTTCTAAATGTTAATTCCATCAAATAAAATAATGCAGGCGGAGTCACCTAGTGCAG”: the binding signal is 3520 fluorescence intensity (a.u.).
Consider “TGGTAAAACCGCGTTGTGATTGCTTCATATCCCTGGTTCCCGGAGTCACCTAGTGCAG”, for which the binding signal is 6790 fluorescence intensity (a.u.).
With “AACTTTTCTATCACATCATTCTAATTTCAACCAAATTTTCCGGAGTCACCTAGTGCAG” the figure was 6910 fluorescence intensity (a.u.); with “CTAAGCAAAGCATTTAATTGATACAAGTTGCTGGGATCATCGGAGTCACCTAGTGCAG”, 6590 fluorescence intensity (a.u.).
On to “GCGATAAATTTATAATTGCCACTTATAATAGTGTATGAAACGGAGTCACCTAGTGCAG”, for which the binding signal is 24000 fluorescence intensity (a.u.).
“TGTGTTAATTGCTTCTAAATATGGTTATTATTGATGATCACGGAGTCACCTAGTGCAG”: the binding signal is 44000 fluorescence intensity (a.u.).
In the case of “CTCACCTAATTTCTATATATTTCTCTTATAATATATCCAACGGAGTCACCTAGTGCAG”, the binding signal is 3900 fluorescence intensity (a.u.).
With “AATGACAAGACGGTTGATGAGACAAGACTAAGAGTAGATTCGGAGTCACCTAGTGCAG” the figure was 3840 fluorescence intensity (a.u.); with “TGAACAATGATTGGAGCATACTAACACTACAGTACAATTACGGAGTCACCTAGTGCAG”, 27400 fluorescence intensity (a.u.); with “TCTGATTGAACGAGTTTACAGATTGAGAAAGCACGCGTCACGGAGTCACCTAGTGCAG”, 53800 fluorescence intensity (a.u.).
As for “GCTCATTAGCATATGATTAACTAGATGAATACCCCGCCACCGGAGTCACCTAGTGCAG”, the binding signal was 8730 fluorescence intensity (a.u.).
As for “GTCTCTTCCTTTCATGTCTTGTATGTTATCCAAACAATATCGGAGTCACCTAGTGCAG”, the binding signal was 3980 fluorescence intensity (a.u.).
With “CCACTACTTATTCAATCACAACCCTTCACTACTCATTTCTCGGAGTCACCTAGTGCAG” the figure was 5440 fluorescence intensity (a.u.); with “TCTCTAGTAATTACAGTAAGACACACTTCTCAGAAAAGAACGGAGTCACCTAGTGCAG”, 3590 fluorescence intensity (a.u.); with “AGAATGATTAGCAGATAACCACAGTACGGCAAACATGAGGCGGAGTCACCTAGTGCAG”, 34900 fluorescence intensity (a.u.).
Regarding “AGGGTAAATTAATTGCCGAGAGGCCCCACTCGGGAACAGTCGGAGTCACCTAGTGCAG”, the binding signal was 27700 fluorescence intensity (a.u.).
On to “CAGTTTAATTGCTCCTCGGATGGATCTGGTATAGTTCTGCCGGAGTCACCTAGTGCAG”, for which the binding signal was 20700 fluorescence intensity (a.u.).
Take “AACTAATTTGATATTTTATATGTTGTTAAATTTTCTGTAACGGAGTCACCTAGTGCAG”: the binding signal was 19800 fluorescence intensity (a.u.).
Regarding “TCTCCTCATCAATCCAATCTCATTAACTCATCACAAGCATCGGAGTCACCTAGTGCAG”, the binding signal was 9890 fluorescence intensity (a.u.).
As to “GATTAATGATTAATTAATAATATGTTAATGAGTTTTATCCCGGAGTCACCTAGTGCAG”, the binding signal is 52500 fluorescence intensity (a.u.).
The value for “ATGATTACTAAAACTGTACTTAAAGGCAATGGTTTCTGTACGGAGTCACCTAGTGCAG” was 13900 fluorescence intensity (a.u.); that for “AATAACTCATTAAATTGCATAACCATATCACATATAGTTTCGGAGTCACCTAGTGCAG” was 8320 fluorescence intensity (a.u.).
Consider “AATTCCCATGCTGATTGCACGTCATAGGTGCATCTAGCGACGGAGTCACCTAGTGCAG”, for which the binding signal is 7000 fluorescence intensity (a.u.).
In the case of “ACAAAACTATAGATTGAACTAGAATTCTCACAGTTCTGAACGGAGTCACCTAGTGCAG”, the binding signal was 6750 fluorescence intensity (a.u.).

Values taken from article PMC7819943, “Rice protein-binding microarrays: a tool to detect cis-acting elements near promoter regions in rice”.
